# The other results are listed elsewhere or left out.
# B1: SSR1 (Sclerotium rolfsii), A0A0M3KL30 (protein)
# chain: TYKITVRVYQTNPDAFFHPVEKTVWKYANGGTWTITDDQHVLTMGGSGTSGTLRFHADNGESFTATFGVHNYKRWCDIVTNLAADETGMVINQQYYSQKNREEARERQLSNYQVKNAKGRNFQIVYTEAEGNDLHANLIIG
# What was measured:
# Test in all cases: glycan array binding signal (z-score within array); higher = stronger binding
# Details in all cases: glycan notation: IUPAC condensed, linker removed
# [1] = target: GlcNAc(a1-6)Gal(b1-4)GlcNAc
# Outline: (§1)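 Glycan array binding is given as a within-array Z-score, which can be read as non-binding when negative. The arrays, 3228 of them, came from the Consortium for Functional Glycomics database and were retained only where the protein sequence was available. Z-scores were averaged across arrays of the same protein sequence at different concentrations or buffers and across linkers.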
# [2] = target: GlcNAc(b1-2)Gal(b1-3)GalNAc
# Outline: as §1
# [3] = target: GlcNAc(b1-2)Man(a1-3)[GlcNAc(b1-2)Man(a1-6)]Man(b1-4)GlcNAc(b1-4)GlcNAc
# Outline: as §1
# [4] = target: GlcNAc(b1-2)Man(a1-3)[GlcNAc(b1-2)Man(a1-6)]Man(b1-4)GlcNAc(b1-4)[Fuc(a1-6)]GlcNAc
# Outline: as §1
# [5] = target: GlcNAc(b1-2)Man(a1-3)[GlcNAc(b1-4)][GlcNAc(b1-2)Man(a1-6)]Man(b1-4)GlcNAc(b1-4)GlcNAc
# Outline: as §1
# [6] = target: GlcNAc(b1-2)Man(a1-3)[GlcNAc(b1-4)][GlcNAc(b1-2)Man(a1-6)]Man(b1-4)GlcNAc(b1-4)[Fuc(a1-6)]GlcNAc
# Outline: as §1
# [7] = target: GlcNAc(b1-2)[GlcNAc(b1-4)]Man(a1-3)[GlcNAc(b1-2)Man(a1-6)]Man(b1-4)GlcNAc(b1-4)GlcNAc
# Outline: as §1
# [8] = target: GlcNAc(b1-2)[GlcNAc(b1-4)]Man(a1-3)[GlcNAc(b1-4)][GlcNAc(b1-2)Man(a1-6)]Man(b1-4)GlcNAc(b1-4)GlcNAc
# Outline: as §1
# [9] = target: GlcNAc(b1-2)[GlcNAc(b1-4)]Man(a1-3)[GlcNAc(b1-4)][GlcNAc(b1-2)[GlcNAc(b1-6)]Man(a1-6)]Man(b1-4)GlcNAc(b1-4)GlcNAc
# Outline: as §1
# [10] = target: GlcNAc(b1-2)[GlcNAc(b1-4)]Man(a1-3)[GlcNAc(b1-4)][GlcNAc(b1-2)[GlcNAc(b1-6)]Man(a1-6)]Man(b1-4)GlcNAc(b1-4)[Fuc(a1-6)]GlcNAc
# Outline: as §1
# [11] = target: GlcNAc(b1-2)[GlcNAc(b1-6)]Man(a1-6)[GlcNAc(b1-2)Man(a1-3)]Man(b1-4)GlcNAc(b1-4)GlcNAc
# Outline: as §1
# [12] = target: GlcNAc(b1-2)[GlcNAc(b1-6)]Man(a1-6)[GlcNAc(b1-2)Man(a1-3)]Man(b1-4)GlcNAc(b1-4)[Fuc(a1-6)]GlcNAc
# Outline: as §1
# [13] = target: GlcNAc(b1-2)[GlcNAc(b1-6)]Man(a1-6)[GlcNAc(b1-4)][GlcNAc(b1-2)Man(a1-3)]Man(b1-4)GlcNAc(b1-4)GlcNAc
# Outline: as §1
# GlcNAc(b1-3)Fuc = target: GlcNAc(b1-3)Fuc
# Outline: as §1
# GlcNAc(b1-3)Gal = target: GlcNAc(b1-3)Gal
# Outline: as §1
# [14] = target: GlcNAc(b1-3)Gal(b1-3)GalNAc
# Outline: as §1
# GlcNAc(b1-3)Gal(b1-4)Glc = target: GlcNAc(b1-3)Gal(b1-4)Glc
# Outline: as §1
# [15] = target: GlcNAc(b1-3)Gal(b1-4)GlcNAc
# Outline: as §1
# [16] = target: GlcNAc(b1-3)Gal(b1-4)GlcNAc(b1-2)Man(a1-3)[GlcNAc(b1-3)Gal(b1-4)GlcNAc(b1-2)Man(a1-6)]Man(b1-4)GlcNAc(b1-4)GlcNAc
# Outline: as §1
# [17] = target: GlcNAc(b1-3)Gal(b1-4)GlcNAc(b1-2)Man(a1-3)[GlcNAc(b1-3)Gal(b1-4)GlcNAc(b1-2)Man(a1-6)]Man(b1-4)GlcNAc(b1-4)[Fuc(a1-6)]GlcNAc
# Outline: as §1
# [18] = target: GlcNAc(b1-3)Gal(b1-4)GlcNAc(b1-2)[GlcNAc(b1-3)Gal(b1-4)GlcNAc(b1-6)]Man(a1-6)[GlcNAc(b1-3)Gal(b1-4)GlcNAc(b1-2)Man(a1-3)]Man(b1-4)GlcNAc(b1-4)GlcNAc
# Outline: as §1
# [19] = target: GlcNAc(b1-3)Gal(b1-4)GlcNAc(b1-3)Gal(b1-4)GlcNAc
# Outline: as §1
# [20] = target: GlcNAc(b1-3)Gal(b1-4)GlcNAc(b1-3)Gal(b1-4)GlcNAc(b1-2)Man(a1-3)[GlcNAc(b1-3)Gal(b1-4)GlcNAc(b1-3)Gal(b1-4)GlcNAc(b1-2)Man(a1-6)]Man(b1-4)GlcNAc(b1-4)GlcNAc
# Outline: as §1
# [21] = target: GlcNAc(b1-3)Gal(b1-4)GlcNAc(b1-3)Gal(b1-4)GlcNAc(b1-2)Man(a1-3)[GlcNAc(b1-3)Gal(b1-4)GlcNAc(b1-3)Gal(b1-4)GlcNAc(b1-2)Man(a1-6)]Man(b1-4)GlcNAc(b1-4)[Fuc(a1-6)]GlcNAc
# Outline: as §1
# [22] = target: GlcNAc(b1-3)Gal(b1-4)GlcNAc(b1-3)Gal(b1-4)GlcNAc(b1-2)[GlcNAc(b1-3)Gal(b1-4)GlcNAc(b1-3)Gal(b1-4)GlcNAc(b1-6)]Man(a1-6)[GlcNAc(b1-3)Gal(b1-4)GlcNAc(b1-3)Gal(b1-4)GlcNAc(b1-2)Man(a1-3)]Man(b1-4)GlcNAc(b1-4)[Fuc(a1-6)]GlcNAc
# Outline: as §1
# [23] = target: GlcNAc(b1-3)Gal(b1-4)GlcNAc(b1-3)Gal(b1-4)GlcNAc(b1-3)Gal(b1-4)GlcNAc(b1-2)Man(a1-3)[GlcNAc(b1-3)Gal(b1-4)GlcNAc(b1-3)Gal(b1-4)GlcNAc(b1-3)Gal(b1-4)GlcNAc(b1-2)Man(a1-6)]Man(b1-4)GlcNAc(b1-4)GlcNAc
# Outline: as §1
# [24] = target: GlcNAc(b1-3)Gal(b1-4)GlcNAc(b1-3)Gal(b1-4)GlcNAc(b1-3)Gal(b1-4)GlcNAc(b1-2)Man(a1-3)[GlcNAc(b1-3)Gal(b1-4)GlcNAc(b1-3)Gal(b1-4)GlcNAc(b1-3)Gal(b1-4)GlcNAc(b1-2)Man(a1-6)]Man(b1-4)GlcNAc(b1-4)[Fuc(a1-6)]GlcNAc
# Outline: as §1
# [25] = target: GlcNAc(b1-3)Gal(b1-4)GlcNAc(b1-3)Gal(b1-4)GlcNAc(b1-3)Gal(b1-4)GlcNAc(b1-2)[GlcNAc(b1-3)Gal(b1-4)GlcNAc(b1-3)Gal(b1-4)GlcNAc(b1-3)Gal(b1-4)GlcNAc(b1-6)]Man(a1-6)[GlcNAc(b1-3)Gal(b1-4)GlcNAc(b1-3)Gal(b1-4)GlcNAc(b1-3)Gal(b1-4)GlcNAc(b1-2)Man(a1-3)]Man(b1-4)GlcNAc(b1-4)[Fuc(a1-6)]GlcNAc
# Outline: as §1
# [26] = target: GlcNAc(b1-3)Gal(b1-4)GlcNAc(b1-3)Gal(b1-4)GlcNAc(b1-3)Gal(b1-4)GlcNAc(b1-3)Gal(b1-4)GlcNAc(b1-2)Man(a1-3)[GlcNAc(b1-3)Gal(b1-4)GlcNAc(b1-3)Gal(b1-4)GlcNAc(b1-3)Gal(b1-4)GlcNAc(b1-3)Gal(b1-4)GlcNAc(b1-2)Man(a1-6)]Man(b1-4)GlcNAc(b1-4)GlcNAc
# Outline: as §1
# [27] = target: GlcNAc(b1-3)Gal(b1-4)GlcNAc(b1-3)Gal(b1-4)GlcNAc(b1-3)Gal(b1-4)GlcNAc(b1-3)Gal(b1-4)GlcNAc(b1-2)Man(a1-3)[GlcNAc(b1-3)Gal(b1-4)GlcNAc(b1-3)Gal(b1-4)GlcNAc(b1-3)Gal(b1-4)GlcNAc(b1-3)Gal(b1-4)GlcNAc(b1-2)Man(a1-6)]Man(b1-4)GlcNAc(b1-4)[Fuc(a1-6)]GlcNAc
# Outline: as §1
# [28] = target: GlcNAc(b1-3)Gal(b1-4)GlcNAc(b1-3)Gal(b1-4)GlcNAc(b1-3)Gal(b1-4)GlcNAc(b1-3)Gal(b1-4)GlcNAc(b1-2)[GlcNAc(b1-3)Gal(b1-4)GlcNAc(b1-3)Gal(b1-4)GlcNAc(b1-3)Gal(b1-4)GlcNAc(b1-3)Gal(b1-4)GlcNAc(b1-6)]Man(a1-6)[GlcNAc(b1-3)Gal(b1-4)GlcNAc(b1-3)Gal(b1-4)GlcNAc(b1-3)Gal(b1-4)GlcNAc(b1-3)Gal(b1-4)GlcNAc(b1-2)Man(a1-3)]Man(b1-4)GlcNAc(b1-4)[Fuc(a1-6)]GlcNAc
# Outline: as §1
# [29] = target: GlcNAc(b1-3)Gal(b1-4)GlcNAc(b1-3)Gal(b1-4)GlcNAc(b1-3)GalNAc
# Outline: as §1
# [30] = target: GlcNAc(b1-3)Gal(b1-4)GlcNAc(b1-3)GalNAc
# Outline: as §1
# [31] = target: GlcNAc(b1-3)Gal(b1-4)GlcNAc(b1-3)[GlcNAc(b1-3)Gal(b1-4)GlcNAc(b1-3)]GalNAc
# Outline: as §1
# [32] = target: GlcNAc(b1-3)Gal(b1-4)GlcNAc(b1-6)[Gal(b1-3)]GalNAc
# Outline: as §1
# [33] = target: GlcNAc(b1-3)Gal(b1-4)GlcNAc(b1-6)[GlcNAc(b1-3)Gal(b1-3)]GalNAc
# Outline: as §1
# [34] = target: GlcNAc(b1-3)Gal(b1-4)GlcNAc(b1-6)[GlcNAc(b1-3)]Gal(b1-4)GlcNAc
# Outline: as §1
# GlcNAc(b1-3)GalNAc = target: GlcNAc(b1-3)GalNAc
# Outline: as §1
# GlcNAc(b1-3)Man = target: GlcNAc(b1-3)Man
# Outline: as §1
# [35] = target: GlcNAc(b1-3)[GlcNAc(b1-4)][GlcNAc(b1-6)]GlcNAc
# Outline: as §1
# [36] = target: GlcNAc(b1-3)[GlcNAc(b1-6)]Gal(b1-4)GlcNAc
# Outline: as §1
# [37] = target: GlcNAc(b1-3)[GlcNAc(b1-6)]GalNAc
# Outline: as §1
# [38] = target: GlcNAc(b1-4)Gal(b1-4)GlcNAc
# Outline: as §1
# GlcNAc(b1-4)GlcNAc = target: GlcNAc(b1-4)GlcNAc
# Outline: as §1
# [39] = target: GlcNAc(b1-4)GlcNAc(b1-4)GlcNAc
# Outline: as §1
binder,measurement,setting,value
B1,glycan array binding signal (z-score),[1],1.09
same,glycan array binding signal (z-score),[2],-0.263
same,glycan array binding signal (z-score),[3],5.28
same,glycan array binding signal (z-score),[4],2.64
same,glycan array binding signal (z-score),[5],2.81
same,glycan array binding signal (z-score),[6],2.76
same,glycan array binding signal (z-score),[7],3.04
same,glycan array binding signal (z-score),[8],1.2
same,glycan array binding signal (z-score),[9],0.675
same,glycan array binding signal (z-score),[10],0.52
same,glycan array binding signal (z-score),[11],3.93
same,glycan array binding signal (z-score),[12],3.66
same,glycan array binding signal (z-score),[13],1.41
same,glycan array binding signal (z-score),GlcNAc(b1-3)Fuc,0.263
same,glycan array binding signal (z-score),GlcNAc(b1-3)Gal,-0.195
same,glycan array binding signal (z-score),[14],1.72
same,glycan array binding signal (z-score),GlcNAc(b1-3)Gal(b1-4)Glc,0.335
same,glycan array binding signal (z-score),[15],1.27
same,glycan array binding signal (z-score),[16],1.04
same,glycan array binding signal (z-score),[17],1.17
same,glycan array binding signal (z-score),[18],1.32
same,glycan array binding signal (z-score),[19],1.13
same,glycan array binding signal (z-score),[20],0.723
same,glycan array binding signal (z-score),[21],1.07
same,glycan array binding signal (z-score),[22],0.914
same,glycan array binding signal (z-score),[23],0.934
same,glycan array binding signal (z-score),[24],0.966
same,glycan array binding signal (z-score),[25],1.16
same,glycan array binding signal (z-score),[26],1.22
same,glycan array binding signal (z-score),[27],1.37
same,glycan array binding signal (z-score),[28],1.32
same,glycan array binding signal (z-score),[29],0.907
same,glycan array binding signal (z-score),[30],0.711
same,glycan array binding signal (z-score),[31],0.961
same,glycan array binding signal (z-score),[32],0.938
same,glycan array binding signal (z-score),[33],0.871
same,glycan array binding signal (z-score),[34],0.953
same,glycan array binding signal (z-score),GlcNAc(b1-3)GalNAc,0.954
same,glycan array binding signal (z-score),GlcNAc(b1-3)Man,0.691
same,glycan array binding signal (z-score),[35],0.004
same,glycan array binding signal (z-score),[36],1.1
same,glycan array binding signal (z-score),[37],0.204
same,glycan array binding signal (z-score),[38],-0.333
same,glycan array binding signal (z-score),GlcNAc(b1-4)GlcNAc,0.653
same,glycan array binding signal (z-score),[39],1.08

# Source: the supplement of paper PMC8728848
